Laboratory results reported in the supplement of paper PMC10126150.
Values marked as one replicate rest on one cluster of the flow cell; about a third of the high ones do not repeat.

test system: ATP; test: switch fluorescence ratio, 500 uM ATP over buffer (Cy3 cluster intensity, sum of 5 cycles each) (fold (ratio)); higher = stronger signal-on switching upon ATP binding; sequences stand for … in TCGTCGGCAGCGTCAGATGTGTATAAGAGACAGTTTTTTTTTTTTTTTTTTTTTTTTT…TC; settings: aptamer strand: ATP DNA aptamer (quencher-CACCTGGGGGAGTATTGCGGAGGAAGG + anchor), 100 nM annealed; ATP concentration: 500 uM; one replicate
How it was run: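 Per cluster, summed Cy3 intensity from the target cycles was divided by that from the buffer cycles to give the fluorescence ratio, then averaged per switch-domain sequence. Clusters outside 100-1000 RFU were excluded. The Cy3-labelled switching-strand clusters, on a modified Illumina MiSeq flow-cell, were annealed to 100 nM quencher-labelled ATP aptamer and imaged in selection buffer, then after 15 min with 500 uM ATP at 22 °C, for five cycles with NaOH stripping and re-annealing between them.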
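Further: ATP exposure 15 min at 22 °C before imaging.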

| Sequence | switch fluorescence ratio |
| --- | --- |
| TTTCTACCAA | 1.19 |
| TTTCTACGTG | 1 |
| TTTCTAGAC | 1.04 |
| TTTCTCAAAT | 1.06 |
| TTTCTCGATT | 0.994 |
| TTTCTGACTT | 1 |
| TTTCTGCCGT | 1.05 |
| TTTCTGGAGC | 1.47 |
| TTTCTTCTAT | 1.01 |
| TTTCTTGAAT | 1.02 |
| TTTCTTGGTG | 0.996 |
| TTTGAAAAT | 1.36 |
| TTTGAAACCC | 1.14 |
| TTTGAAAGTA | 0.999 |
| TTTGAAATGG | 1.57 |
| TTTGAACGGT | 0.995 |
| TTTGAGGCGT | 1.06 |
| TTTGAGGG | 1.02 |
| TTTGATAATC | 0.976 |
| TTTGATTCTA | 1 |
| TTTGCAACG | 0.953 |
| TTTGCAAGCT | 1.04 |
| TTTGCACGAG | 0.992 |
| TTTGCACTAC | 4.54 |
| TTTGCAGGTG | 3.36 |
| TTTGCCGTA | 0.978 |

| Sequence | switch fluorescence ratio |
| --- | --- |
| TTTGCCGTTG | 1.06 |
| TTTGCCTACT | 1.06 |
| TTTGCGACCG | 1.01 |
| TTTGCGACTT | 1.04 |
| TTTGCGAGTT | 1.04 |
| TTTGCGGCGC | 1.01 |
| TTTGCTAGGA | 1.02 |
| TTTGCTCTGG | 1.15 |
| TTTGCTGATG | 0.969 |
| TTTGCTGGGT | 0.978 |
| TTTGCTTGAT | 1.01 |
| TTTGCTTGTT | 1.04 |
| TTTGGCAATC | 2.77 |
| TTTGGCACTT | 1.04 |
| TTTGGCATAT | 1.07 |
| TTTGGCTTCC | 2.27 |
| TTTGGGCA | 0.994 |
| TTTGGGCCCT | 0.956 |
| TTTGGTATAT | 0.945 |
| TTTGGTCAAC | 0.958 |
| TTTGGTGACC | 1.36 |
| TTTGGTTATC | 0.982 |
| TTTGGTTCCG | 1.05 |
| TTTGTAACCC | 1.21 |
| TTTGTAATA | 1.01 |
| TTTGTACAAT | 1.01 |

| Sequence | switch fluorescence ratio |
| --- | --- |
| TTTGTACAGC | 1.08 |
| TTTGTAGAC | 1.01 |
| TTTGTCATAA | 1.02 |
| TTTGTCTTGA | 1.17 |
| TTTGTGGGAA | 0.948 |
| TTTGTGTTCC | 1.08 |
| TTTGTTATCC | 1.08 |
| TTTGTTCAAC | 0.983 |
| TTTTAAGTAG | 1.01 |
| TTTTAATAGG | 1.01 |
| TTTTAATGA | 1.04 |
| TTTTACACAC | 1.43 |
| TTTTACGCGG | 0.996 |
| TTTTACTGGA | 1.02 |
| TTTTACTGTG | 0.998 |
| TTTTAGCGTA | 1.1 |
| TTTTAGGACG | 0.992 |
| TTTTAGGCAG | 0.987 |
| TTTTAGTTC | 0.98 |
| TTTTATACTC | 1.25 |
| TTTTATATTG | 0.995 |
| TTTTATGGCC | 1.02 |
| TTTTCACGTG | 1.01 |
| TTTTCAGCAT | 2.85 |
| TTTTCATCCA | 0.985 |
| TTTTCATGCG | 0.989 |

| Sequence | switch fluorescence ratio |
| --- | --- |
| TTTTCCAATC | 1.96 |
| TTTTCCATA | 1.02 |
| TTTTCCCGT | 0.996 |
| TTTTCCTTCA | 1.33 |
| TTTTCGAGGA | 0.98 |
| TTTTCGGCCA | 0.994 |
| TTTTCTCCG | 1.29 |
| TTTTCTGAG | 0.957 |
| TTTTGACCCC | 1.14 |
| TTTTGAGTA | 1.01 |
| TTTTGCAAGA | 1.84 |
| TTTTGCGTA | 0.972 |
| TTTTGCTAAT | 0.976 |
| TTTTGCTACG | 1.04 |
| TTTTGCTCCT | 1.02 |
| TTTTGGGACA | 1.01 |
| TTTTGGGCAC | 0.994 |
| TTTTTAATAA | 0.976 |
| TTTTTAGCAG | 1.03 |
| TTTTTCAGT | 0.975 |
| TTTTTCTCCT | 1.04 |
| TTTTTGA | 1 |
| TTTTTTCAA | 1.02 |
| TTTTTTTGT | 0.991 |
